{"source": "the supplement of paper PMC10369915", "binders": {"B1": {"name": "ABL2_HUMAN_683 (peptide)", "chain": "ENQPHKKYELTGNFS"}, "B2": {"name": "CSK_HUMAN_416 (peptide)", "chain": "DGCPPAVYEVMKNCW"}, "B3": {"name": "CTLA4_HUMAN_201 (peptide)", "chain": "SPLTTGVYVKMPPTE"}, "B4": {"name": "CTNB1_HUMAN_333 (peptide)", "chain": "NIMRTYTYEKLLWTT"}, "B5": {"name": "CTNB1_HUMAN_333_YA (peptide)", "chain": "NIMRTATYEKLLWTT"}, "B6": {"name": "ABL2_HUMAN_718 (peptide)", "chain": "NLVPPKCYGGSFAQR"}, "B7": {"name": "CTND1_HUMAN_257 (peptide)", "chain": "APSRQDVYGPQPQVR"}, "B8": {"name": "CTRO_HUMAN_1196 (peptide)", "chain": "TERSDLEYQLENIQV"}, "B9": {"name": "CTTN_HUMAN_334 (peptide)", "chain": "VTQVSSAYQKTVPVE"}, "B10": {"name": "CU059_HUMAN_264 (peptide)", "chain": "EENDDDAYLNSPWAD"}, "B11": {"name": "CXA1_HUMAN_247 (peptide)", "chain": "VKGKSDPYHATSGAL"}, "B12": {"name": "CYC_HUMAN_49_YA (peptide)", "chain": "GQAPGASYTAANKNK"}, "B13": {"name": "CYP19A1_HUMAN_361_YA (peptide)", "chain": "KVMENFIYESMRAQP"}, "B14": {"name": "ABLM1_HUMAN_396 (peptide)", "chain": "IPKVKAIYDIERPDL"}, "B15": {"name": "DAB1_HUMAN_198 (peptide)", "chain": "EDVEDPVYQYIVFEA"}, "B16": {"name": "DAB1_HUMAN_232 (peptide)", "chain": "SQKKEGVYDVPKSQP"}, "B17": {"name": "DAPP1_HUMAN_139 (peptide)", "chain": "KVEEPSIYESVRVHT"}, "B18": {"name": "DCLK1_HUMAN_520 (peptide)", "chain": "KPENLLVYEHQDGSK"}}, "note": "This is one part of the list. No stated cut-off is given here; in the data, active = 3.2 or more and inactive = the rest. Most of these values are background signal.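 Further: displayed peptides selected on beads carrying the immobilized SH2 domain, with library peptides lacking any tyrosine serving as negative controls.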", "data": [{"biological_target": "SHP2 C-SH2 domain E139D", "assay": "enrichment score (SH2-bound / input frequency) (ratio); higher = stronger binding; tyrosines were phosphorylated by kinases first", "details": "peptide library: Human pTyr", "values": [{"binder": "B1", "enrichment score": "inactive: 0.791"}, {"binder": "B2", "enrichment score": "inactive: 0.592"}, {"binder": "B3", "enrichment score": "inactive: 0.747"}, {"binder": "B4", "enrichment score": "inactive: 1.97"}, {"binder": "B5", "enrichment score": "inactive: 1.02"}, {"binder": "B6", "enrichment score": "inactive: 1.17"}, {"binder": "B7", "enrichment score": "inactive: 0.875"}, {"binder": "B8", "enrichment score": "inactive: 0.974"}, {"binder": "B9", "enrichment score": "inactive: 0.798"}, {"binder": "B10", "enrichment score": "inactive: 1.24"}, {"binder": "B11", "enrichment score": "inactive: 0.861"}, {"binder": "B12", "enrichment score": "inactive: 1.06"}, {"binder": "B13", "enrichment score": "inactive: 0.756"}, {"binder": "B14", "enrichment score": "inactive: 0.658"}, {"binder": "B15", "enrichment score": "inactive: 1.75"}, {"binder": "B16", "enrichment score": "inactive: 0.682"}, {"binder": "B17", "enrichment score": "inactive: 0.905"}, {"binder": "B18", "enrichment score": "inactive: 1.11"}]}, {"biological_target": "SHP2 C-SH2 domain wild-type", "assay": "enrichment score (SH2-bound / input frequency) (ratio); higher = stronger binding; tyrosines were phosphorylated by kinases first", "details": "peptide library: Human pTyr", "values": [{"binder": "B1", "enrichment score": "inactive: 1"}, {"binder": "B2", "enrichment score": "inactive: 0.644"}, {"binder": "B3", "enrichment score": "inactive: 0.714"}, {"binder": "B4", "enrichment score": "inactive: 2.43"}, {"binder": "B5", "enrichment score": "inactive: 1.1"}, {"binder": "B6", "enrichment score": "inactive: 1.03"}, {"binder": "B7", "enrichment score": "inactive: 0.732"}, {"binder": "B8", "enrichment score": "inactive: 1.12"}, {"binder": "B9", "enrichment score": "inactive: 0.644"}, {"binder": "B10", "enrichment score": "inactive: 0.969"}, {"binder": "B11", "enrichment score": "inactive: 0.747"}, {"binder": "B12", "enrichment score": "inactive: 0.877"}, {"binder": "B13", "enrichment score": "inactive: 0.795"}, {"binder": "B14", "enrichment score": "inactive: 0.77"}, {"binder": "B15", "enrichment score": "inactive: 1.55"}, {"binder": "B16", "enrichment score": "inactive: 0.666"}, {"binder": "B17", "enrichment score": "inactive: 0.729"}, {"binder": "B18", "enrichment score": "inactive: 0.671"}]}, {"biological_target": "SHP2 N-SH2 domain L43F", "assay": "enrichment score (SH2-bound / input frequency) (ratio); higher = stronger binding; tyrosines were phosphorylated by kinases first", "details": "peptide library: Human pTyr", "values": [{"binder": "B1", "enrichment score": "inactive: 0.994"}, {"binder": "B2", "enrichment score": "inactive: 0.793"}, {"binder": "B3", "enrichment score": "inactive: 0.652"}, {"binder": "B4", "enrichment score": "active: 6.33"}, {"binder": "B5", "enrichment score": "inactive: 2.82"}, {"binder": "B6", "enrichment score": "inactive: 1.16"}, {"binder": "B7", "enrichment score": "inactive: 0.716"}, {"binder": "B8", "enrichment score": "inactive: 0.973"}, {"binder": "B9", "enrichment score": "inactive: 0.739"}, {"binder": "B10", "enrichment score": "inactive: 1.02"}, {"binder": "B11", "enrichment score": "inactive: 0.68"}, {"binder": "B12", "enrichment score": "inactive: 0.875"}, {"binder": "B13", "enrichment score": "inactive: 0.848"}, {"binder": "B14", "enrichment score": "inactive: 0.899"}, {"binder": "B15", "enrichment score": "inactive: 1.68"}, {"binder": "B16", "enrichment score": "inactive: 0.747"}, {"binder": "B17", "enrichment score": "inactive: 0.681"}, {"binder": "B18", "enrichment score": "inactive: 0.599"}]}, {"biological_target": "SHP2 N-SH2 domain T42A", "assay": "enrichment score (SH2-bound / input frequency) (ratio); higher = stronger binding; tyrosines were phosphorylated by kinases first", "details": "peptide library: Human pTyr", "values": [{"binder": "B1", "enrichment score": "inactive: 0.786"}, {"binder": "B2", "enrichment score": "inactive: 0.62"}, {"binder": "B3", "enrichment score": "inactive: 0.476"}, {"binder": "B4", "enrichment score": "active: 11.9"}, {"binder": "B5", "enrichment score": "active: 4.08"}, {"binder": "B6", "enrichment score": "inactive: 0.942"}, {"binder": "B7", "enrichment score": "inactive: 0.708"}, {"binder": "B8", "enrichment score": "inactive: 1.04"}, {"binder": "B9", "enrichment score": "inactive: 0.624"}, {"binder": "B10", "enrichment score": "inactive: 1.13"}, {"binder": "B11", "enrichment score": "inactive: 0.881"}, {"binder": "B12", "enrichment score": "inactive: 0.863"}, {"binder": "B13", "enrichment score": "inactive: 0.897"}, {"binder": "B14", "enrichment score": "inactive: 0.991"}, {"binder": "B15", "enrichment score": "inactive: 1.55"}, {"binder": "B16", "enrichment score": "inactive: 0.997"}, {"binder": "B17", "enrichment score": "inactive: 0.707"}, {"binder": "B18", "enrichment score": "inactive: 0.765"}]}, {"biological_target": "SHP2 N-SH2 domain T52S", "assay": "enrichment score (SH2-bound / input frequency) (ratio); higher = stronger binding; tyrosines were phosphorylated by kinases first", "details": "peptide library: Human pTyr", "values": [{"binder": "B1", "enrichment score": "inactive: 1.28"}, {"binder": "B2", "enrichment score": "inactive: 0.662"}, {"binder": "B3", "enrichment score": "inactive: 0.898"}, {"binder": "B4", "enrichment score": "active: 4.28"}, {"binder": "B5", "enrichment score": "inactive: 2.28"}, {"binder": "B6", "enrichment score": "inactive: 1.3"}, {"binder": "B7", "enrichment score": "inactive: 0.85"}, {"binder": "B8", "enrichment score": "inactive: 0.974"}, {"binder": "B9", "enrichment score": "inactive: 0.713"}, {"binder": "B10", "enrichment score": "inactive: 1.03"}, {"binder": "B11", "enrichment score": "inactive: 0.887"}, {"binder": "B12", "enrichment score": "inactive: 0.957"}, {"binder": "B13", "enrichment score": "inactive: 0.87"}, {"binder": "B14", "enrichment score": "inactive: 0.85"}, {"binder": "B15", "enrichment score": "inactive: 1.65"}, {"binder": "B16", "enrichment score": "inactive: 0.745"}, {"binder": "B17", "enrichment score": "inactive: 1.62"}, {"binder": "B18", "enrichment score": "inactive: 0.738"}]}, {"biological_target": "SHP2 N-SH2 domain wild-type", "assay": "enrichment score (SH2-bound / input frequency) (ratio); bacterial display of known human phosphotyrosine sites (pTyr-Var adds point mutants) read by sequencing; higher = stronger binding; tyrosines were phosphorylated by kinases first", "details": "peptide library: Human pTyr", "values": [{"binder": "B1", "enrichment score": "inactive: 1.36"}, {"binder": "B2", "enrichment score": "inactive: 0.655"}, {"binder": "B3", "enrichment score": "inactive: 0.737"}, {"binder": "B4", "enrichment score": "inactive: 2.37"}, {"binder": "B5", "enrichment score": "inactive: 0.9"}, {"binder": "B6", "enrichment score": "inactive: 1.18"}, {"binder": "B7", "enrichment score": "inactive: 0.96"}, {"binder": "B8", "enrichment score": "inactive: 0.717"}, {"binder": "B9", "enrichment score": "inactive: 0.752"}, {"binder": "B10", "enrichment score": "inactive: 0.969"}, {"binder": "B11", "enrichment score": "inactive: 0.843"}, {"binder": "B12", "enrichment score": "inactive: 1.08"}, {"binder": "B13", "enrichment score": "inactive: 1.36"}, {"binder": "B14", "enrichment score": "inactive: 0.818"}, {"binder": "B15", "enrichment score": "inactive: 1.95"}, {"binder": "B16", "enrichment score": "inactive: 0.793"}, {"binder": "B17", "enrichment score": "inactive: 1.01"}, {"binder": "B18", "enrichment score": "inactive: 0.589"}]}]}
